Common to all, as to assay: cell adhesion to coated peptides (LDH read-out); peptide-coated 96-well plates; 5 × 10^4 integrin-transfected C2C12 cells per well in Tris-buffered saline with 5.5 mM glucose and 2 mM MgCl2, 20 °C, 60 min; adherent cells lysed and read with a lactate dehydrogenase kit; only the target purified
Test [1] addresses short triple-helical peptide (THP) containing GRSGET (human).
The target in test [2] is short triple-helical peptide (THP) containing GLSGER (human).
Test [3] has as its target short triple-helical peptide (THP) containing GLKGEN (human).

The chains behind the UniProt entries cited, without tags or fusion partners. Where a name states a change or a piece, a line headed by the entry shows the natural chain unless it says otherwise.
UniProt P56199: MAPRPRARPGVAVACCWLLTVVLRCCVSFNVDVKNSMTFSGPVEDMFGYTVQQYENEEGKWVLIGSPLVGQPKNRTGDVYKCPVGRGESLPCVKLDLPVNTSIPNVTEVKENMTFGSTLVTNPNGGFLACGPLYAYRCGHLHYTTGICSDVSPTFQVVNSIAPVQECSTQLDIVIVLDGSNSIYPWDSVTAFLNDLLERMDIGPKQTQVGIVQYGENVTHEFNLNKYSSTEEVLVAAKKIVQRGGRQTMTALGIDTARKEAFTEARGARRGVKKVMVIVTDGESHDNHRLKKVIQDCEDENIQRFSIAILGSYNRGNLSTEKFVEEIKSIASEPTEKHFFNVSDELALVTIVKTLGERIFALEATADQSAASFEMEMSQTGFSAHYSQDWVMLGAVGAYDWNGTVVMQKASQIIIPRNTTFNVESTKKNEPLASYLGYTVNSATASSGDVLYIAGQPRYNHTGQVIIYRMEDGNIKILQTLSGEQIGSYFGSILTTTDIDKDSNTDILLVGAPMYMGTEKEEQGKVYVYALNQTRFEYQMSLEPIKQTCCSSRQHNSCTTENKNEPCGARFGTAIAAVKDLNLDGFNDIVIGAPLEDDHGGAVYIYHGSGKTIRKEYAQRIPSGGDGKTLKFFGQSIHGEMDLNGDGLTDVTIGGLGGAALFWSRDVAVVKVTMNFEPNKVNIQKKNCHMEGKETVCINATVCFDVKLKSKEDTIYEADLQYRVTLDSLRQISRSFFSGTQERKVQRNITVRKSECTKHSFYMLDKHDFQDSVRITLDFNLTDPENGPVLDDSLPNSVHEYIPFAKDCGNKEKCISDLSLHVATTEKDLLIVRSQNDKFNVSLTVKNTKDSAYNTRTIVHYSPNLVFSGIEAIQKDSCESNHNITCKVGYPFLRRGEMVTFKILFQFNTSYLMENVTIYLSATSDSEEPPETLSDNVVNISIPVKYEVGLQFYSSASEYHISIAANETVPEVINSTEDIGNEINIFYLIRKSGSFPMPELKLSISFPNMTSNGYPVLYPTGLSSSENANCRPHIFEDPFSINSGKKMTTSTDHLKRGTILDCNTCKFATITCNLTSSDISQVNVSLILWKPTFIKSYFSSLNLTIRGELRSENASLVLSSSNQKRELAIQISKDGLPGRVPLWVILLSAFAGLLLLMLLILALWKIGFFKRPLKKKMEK
UniProt P17301: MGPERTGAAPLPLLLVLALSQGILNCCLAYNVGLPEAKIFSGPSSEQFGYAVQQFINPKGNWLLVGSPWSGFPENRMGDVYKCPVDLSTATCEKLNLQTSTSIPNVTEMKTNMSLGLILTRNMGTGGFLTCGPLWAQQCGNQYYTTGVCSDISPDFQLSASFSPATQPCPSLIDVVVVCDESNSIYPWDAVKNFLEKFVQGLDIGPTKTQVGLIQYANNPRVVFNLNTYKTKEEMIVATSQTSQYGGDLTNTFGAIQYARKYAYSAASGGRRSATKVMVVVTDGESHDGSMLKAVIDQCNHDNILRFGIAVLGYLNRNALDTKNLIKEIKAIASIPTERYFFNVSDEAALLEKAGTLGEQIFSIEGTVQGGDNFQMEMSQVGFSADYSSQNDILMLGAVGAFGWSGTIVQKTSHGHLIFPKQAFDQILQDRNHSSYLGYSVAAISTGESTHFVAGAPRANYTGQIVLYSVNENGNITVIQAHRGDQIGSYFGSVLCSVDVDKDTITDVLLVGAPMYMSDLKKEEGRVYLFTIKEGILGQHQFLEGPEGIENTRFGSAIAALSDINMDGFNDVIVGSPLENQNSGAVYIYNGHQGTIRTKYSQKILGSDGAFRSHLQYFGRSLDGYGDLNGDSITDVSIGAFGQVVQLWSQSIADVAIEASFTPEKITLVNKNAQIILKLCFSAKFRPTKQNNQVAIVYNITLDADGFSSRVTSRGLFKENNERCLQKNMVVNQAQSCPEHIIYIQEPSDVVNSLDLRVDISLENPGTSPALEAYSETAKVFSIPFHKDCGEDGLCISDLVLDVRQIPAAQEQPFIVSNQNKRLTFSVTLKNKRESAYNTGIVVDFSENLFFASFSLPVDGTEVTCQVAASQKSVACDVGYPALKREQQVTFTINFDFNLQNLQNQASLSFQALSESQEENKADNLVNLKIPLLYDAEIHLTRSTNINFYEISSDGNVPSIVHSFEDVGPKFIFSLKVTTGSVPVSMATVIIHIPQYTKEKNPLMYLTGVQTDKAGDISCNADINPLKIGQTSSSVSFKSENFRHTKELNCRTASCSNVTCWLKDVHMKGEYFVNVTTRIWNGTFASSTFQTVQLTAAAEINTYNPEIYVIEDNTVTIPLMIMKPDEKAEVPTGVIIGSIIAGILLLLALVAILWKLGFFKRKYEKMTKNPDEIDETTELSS
UniProt O75578: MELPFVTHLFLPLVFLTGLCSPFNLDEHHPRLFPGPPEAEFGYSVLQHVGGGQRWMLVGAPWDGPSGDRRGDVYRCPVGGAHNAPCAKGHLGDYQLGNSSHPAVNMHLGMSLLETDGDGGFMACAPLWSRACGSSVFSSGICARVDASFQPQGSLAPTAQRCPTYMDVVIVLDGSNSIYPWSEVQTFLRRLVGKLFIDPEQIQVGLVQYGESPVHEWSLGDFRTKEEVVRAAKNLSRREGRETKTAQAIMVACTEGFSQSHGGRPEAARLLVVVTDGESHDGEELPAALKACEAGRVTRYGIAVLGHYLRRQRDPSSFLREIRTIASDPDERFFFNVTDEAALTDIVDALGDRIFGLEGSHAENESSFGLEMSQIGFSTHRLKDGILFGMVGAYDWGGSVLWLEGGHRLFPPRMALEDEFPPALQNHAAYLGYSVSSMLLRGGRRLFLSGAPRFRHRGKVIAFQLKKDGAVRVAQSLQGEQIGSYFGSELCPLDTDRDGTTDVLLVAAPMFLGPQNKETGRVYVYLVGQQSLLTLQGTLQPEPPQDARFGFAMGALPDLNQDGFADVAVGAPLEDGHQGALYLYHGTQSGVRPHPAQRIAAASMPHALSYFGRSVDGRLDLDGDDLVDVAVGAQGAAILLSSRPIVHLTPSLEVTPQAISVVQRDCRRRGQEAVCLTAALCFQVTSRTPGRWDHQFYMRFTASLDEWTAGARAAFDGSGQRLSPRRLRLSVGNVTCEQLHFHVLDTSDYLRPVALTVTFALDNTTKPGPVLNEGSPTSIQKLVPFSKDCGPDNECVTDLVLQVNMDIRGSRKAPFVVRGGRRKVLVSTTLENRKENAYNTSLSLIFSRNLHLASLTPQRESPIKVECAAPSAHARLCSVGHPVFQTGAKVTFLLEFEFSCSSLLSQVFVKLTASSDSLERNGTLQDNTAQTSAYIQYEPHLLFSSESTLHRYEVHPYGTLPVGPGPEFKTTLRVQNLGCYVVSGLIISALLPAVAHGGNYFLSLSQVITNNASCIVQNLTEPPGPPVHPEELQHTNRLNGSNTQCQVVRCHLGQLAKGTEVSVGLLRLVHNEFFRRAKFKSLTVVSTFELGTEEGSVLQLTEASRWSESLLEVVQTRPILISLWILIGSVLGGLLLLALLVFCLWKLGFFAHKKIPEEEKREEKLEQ
UniProt Q9UKX5: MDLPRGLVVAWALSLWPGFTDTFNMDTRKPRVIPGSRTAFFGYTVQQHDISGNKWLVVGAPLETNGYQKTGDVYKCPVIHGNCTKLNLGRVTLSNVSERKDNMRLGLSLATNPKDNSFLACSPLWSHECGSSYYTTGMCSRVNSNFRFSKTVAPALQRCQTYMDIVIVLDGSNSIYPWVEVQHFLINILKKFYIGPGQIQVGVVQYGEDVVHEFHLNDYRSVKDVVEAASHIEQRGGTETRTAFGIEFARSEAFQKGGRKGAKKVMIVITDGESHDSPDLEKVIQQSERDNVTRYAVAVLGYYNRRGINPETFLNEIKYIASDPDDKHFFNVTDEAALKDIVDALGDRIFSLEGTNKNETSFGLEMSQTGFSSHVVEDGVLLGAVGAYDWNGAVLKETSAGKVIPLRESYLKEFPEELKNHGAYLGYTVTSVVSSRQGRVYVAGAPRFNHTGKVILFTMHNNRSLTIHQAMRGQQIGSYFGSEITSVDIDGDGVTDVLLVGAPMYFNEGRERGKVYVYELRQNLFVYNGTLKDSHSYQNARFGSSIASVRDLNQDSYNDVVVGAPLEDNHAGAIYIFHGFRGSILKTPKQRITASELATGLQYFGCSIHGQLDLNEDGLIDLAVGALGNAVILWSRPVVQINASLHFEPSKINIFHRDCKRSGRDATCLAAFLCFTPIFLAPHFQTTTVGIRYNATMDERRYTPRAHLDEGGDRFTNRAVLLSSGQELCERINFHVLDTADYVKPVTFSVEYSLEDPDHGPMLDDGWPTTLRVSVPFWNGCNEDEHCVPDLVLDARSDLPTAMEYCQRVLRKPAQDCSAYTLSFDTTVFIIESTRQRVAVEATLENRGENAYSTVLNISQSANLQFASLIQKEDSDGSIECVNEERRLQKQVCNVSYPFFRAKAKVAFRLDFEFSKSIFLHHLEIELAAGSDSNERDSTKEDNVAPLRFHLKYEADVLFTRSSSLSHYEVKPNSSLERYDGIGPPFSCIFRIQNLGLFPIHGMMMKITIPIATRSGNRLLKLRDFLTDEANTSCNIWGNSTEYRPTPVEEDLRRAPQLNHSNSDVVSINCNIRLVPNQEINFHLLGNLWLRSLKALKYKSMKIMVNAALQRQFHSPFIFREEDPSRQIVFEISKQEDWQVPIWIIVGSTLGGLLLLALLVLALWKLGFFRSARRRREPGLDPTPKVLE

No constants are given. Whether binding was seen depends on the method and setting. Some entries that bind do so weakly or less than the wild type.

For the substance “integrin α1β1 on C2C12-α1β1 cells (from UniProt P56199 29-1179; P09055 21-798) (receptor)”, in test [1], the binding result is on record as “binds”.
The same measure, in the same setting: in the case of “integrin α2β1 on C2C12-α2β1 cells (from UniProt P17301 30-1181; P09055 21-798) (receptor)” it was “binds”.
Consider “integrin α10β1 on C2C12-α10β1 cells (from UniProt O75578 23-1167; P09055 21-798) (receptor)”, for which the binding result in test [2] is recorded as “binds”; in test [3], “binds”; in test [1] it was “no binding”.
As for “integrin α11β1 on C2C12-α11β1 cells (from UniProt Q9UKX5 23-1188; P09055 21-798) (receptor)”, in test [1], the binding entry is recorded as “binds”.

For the origin of these results see article PMC5380659, “Unique charge-dependent constraint on collagen recognition by integrin α10β1” (Matrix Biology, 2017).
